In all, about 52,000 compounds went through this assay and about 1,700 (3.3%) were called active. No stated cut-off is given here; in the data, active means survival mostly below about 52% (no sharp cut-off); inactive means mostly above about 56%. This is one part of the list.

This experiment deals with Wild type. Briefly: growth inhibition of S. aureus wild type versus tarO mutant, primary screen, teichoic acid synthesis inhibitors, RN4220, OD600 (AID 463173). The conditions noted are these: S. aureus RN4220 wild type/DeltatarO growth, OD600, 18 h, stronger effect = lower value, screened at 18.75 µg/mL (by protocol).
As to `Cn1nnnc1SCC(=O)OC1CCCCC1`, the survival is inactive: 88%. For the molecule `Cc1cc(=O)n2[nH]c(NC(=O)c3cccc(Cl)c3)nc2n1`, the survival was inactive: 89%. The value for `COc1ccccc1CCNC(=O)CCCn1c(=O)c2cccn2c2cccnc21` was inactive: 80%. To `CC1=Nc2cc(C(=O)N3CCCCC3)ccc2Sc2ccc(C)cc21` belongs active: 3%. In the case of `Cc1c(C(=O)NCc2ccc(OC(C)C)cc2)sc2ncnc(N(C)C3CCCCC3)c12`, the survival is inactive: 73%. Consider `CCCC(=O)Nc1nnc(SCc2cc(=O)n3cccc(C)c3n2)s1`, for which the survival is inactive: 99%.

Consider `COc1ccc(-c2nc(CN3CCC(C(=O)NCc4ccc(F)cc4)CC3)c(C)o2)cc1OC`, for which the survival is inactive: 83%. To `CCOC(=O)c1c(NC(=O)/C=C/c2ccc(Cl)cc2)sc2c1CCC(C)C2` (stereo not given) belongs inactive: 55%.

In the case of `COc1ccc(CCC(=O)NC2CC(=O)N(c3ccccc3)C2)cc1` (stereo not given), the survival is inactive: 131%.

Turning to `O=C(NCC(c1ccc2c(c1)OCO2)N1CCN(c2ccccc2F)CC1)c1ccccc1F` (stereo not given), the survival is inactive: 83%. Take `O=c1[nH]cnc2nc3c4ccccc4c4ccccc4c3nc12`: the survival is inactive: 112%. In the case of `CCOC(=O)c1c(C)oc2nc(C)nc(N3CCN(c4cccc(C(F)(F)F)c4)CC3)c12`, the survival is inactive: 71%. As for `COc1ccc(C2CC(=O)N(CC(=O)Nc3ccc(C(C)=O)cc3)c3ccccc3S2)cc1OC` (stereo not given), the survival was inactive: 93%. In the case of `CCCN(CCC)CCNC(=O)c1nn(C)c2c1CS(=O)(=O)c1ccccc1-2`, the survival was inactive: 93%. In the case of `Cc1ccccc1C(=O)n1nc(-c2ccco2)nc1NCc1cccs1`, the survival was inactive: 84%.

In the case of `Cc1ccc2[nH]c(CSc3nnc(NC(=O)COc4ccc(F)cc4)s3)cc(=O)c2c1`, the survival was inactive: 81%.

Take `CCCCc1nc2c(nnn2Cc2ccccc2)c(=O)[nH]1`: the survival was inactive: 104%. To `COc1cc(Cl)c(C)cc1NC(=O)c1nn(C)c2c1CSc1ccccc1-2` belongs inactive: 85%; to `O=C(NCc1nc(-c2ccccc2)no1)c1ccco1`, inactive: 82%; to `O=C(CCCCn1c(=O)c2ccccc2n(Cc2cccc(Cl)c2)c1=O)NCc1ccc2c(c1)OCO2`, inactive: 98%.

With `COc1ccc(CNC(=O)c2cc(-c3ccc(Cl)cc3)n[nH]2)cc1`, the survival was inactive: 74%. For `Cc1ccc2c(c1)N(CC(=O)N(Cc1cccnc1)C1CCCC1)C(=O)C(C)O2` (stereo not given), the survival was inactive: 111%.

In the case of `CCn1cc(C(=O)NCCc2ccccc2)c(=O)c2cc(S(=O)(=O)N3CCc4ccccc4C3)ccc21`, the survival was inactive: 89%. As to `O=S(=O)(NCCc1csc2nc(-c3ccc(Cl)cc3)nn12)c1ccc2c(c1)OCCO2`, the survival is inactive: 75%.

With `CCCN(CCC)CCCNC(=O)c1cn(C)c2ccc(S(=O)(=O)N3CCOCC3)cc2c1=O`, the survival is inactive: 83%. In the case of `CCCn1c2ccccc2c2cnn(CC(=O)NCCCN(Cc3ccccc3)C(C)C)c(=O)c21`, the survival was inactive: 78%. Turning to `CC(C)c1ccc(NC(=O)CN2C(=O)COc3ccc(S(=O)(=O)N4CCOCC4)cc32)cc1`, the survival was inactive: 94%. To `COc1ccc(CCNc2nc(SCc3cccc(F)c3)nc3ccccc23)cc1OC` belongs inactive: 80%; to `CNC(=O)C1C2C=CC3(O2)C1C(=O)N(C1CC1)C3C(=O)NCc1ccc(OC)cc1` (stereo not given), inactive: 100%; to `COc1ccc(-c2cc(C)no2)cc1S(=O)(=O)N1CCOc2ccc(Cl)cc21`, inactive: 76%. The value for `CCCN1CCN(c2cc(-c3ccccc3)nc3cc(-c4cccc(F)c4)nn23)CC1` was inactive: 89%; that for `COc1ccc(Nc2cc(C(=O)NCCCN(C)C3CCCCC3)c3ccccc3n2)c(OC)c1` was inactive: 92%; that for `COC(=O)c1ccc2c(=O)n(CCCCCC(=O)NCc3ccc(OC)cc3)c(=O)[nH]c2c1` was inactive: 70%. To `Cc1nn(-c2ccc(N3CCOCC3)nn2)c(C)c1CCC(=O)Nc1ccc(F)cc1F` belongs inactive: 136%; to `O=C(Nc1ccc(NC(=O)c2ccccc2F)cn1)c1ccco1`, inactive: 101%; to `COc1ccc(NC(=O)C2CCCN(S(=O)(=O)c3c(C)[nH]c(=O)[nH]c3=O)C2)cc1Cl` (stereo not given), inactive: 84%. Take `O=C(CSc1nccn1Cc1ccc(Cl)cc1)Nc1ccc2c(c1)OCO2`: the survival is inactive: 78%. The value for `Cc1ccc(C)c(NC(=O)c2ccc3c(c2)CCN3S(=O)(=O)c2ccccc2)c1` was inactive: 83%; that for `CCC(Sc1nc2ncccc2o1)C(=O)Nc1cccc(C)c1` (stereo not given) was inactive: 56%. For the molecule `O=c1[nH]cnc2c1nnn2Cc1ccccc1F`, the survival was inactive: 92%. The value for `COc1ccc2oc(=O)c(-c3nc(-c4ccc(C)c(C)c4)cs3)cc2c1` was inactive: 81%.

Turning to `O=C(Nc1ccc(Cl)c(C(F)(F)F)c1)C(Cc1ccccc1)NS(=O)(=O)c1cccc2nsnc12` (stereo not given), the survival was inactive: 61%.

On to `Cc1cc(C)cc(OCCSc2nc(-c3cccs3)nc3cc(=O)[nH]n23)c1`, for which the survival is inactive: 60%. Turning to `CCc1cc2c(cc3c(=O)n(CC(=O)NCCc4ccccc4)ncn32)s1`, the survival is inactive: 85%. Turning to `CCc1ccc(C2c3c(-c4ccccc4)n[nH]c3C(=O)N2c2ccc(C(=O)O)cc2)cc1` (stereo not given), the survival was inactive: 79%. `O=C(CN1N=C(c2ccccc2)CCC1=O)NCc1ccc(F)cc1Cl`: the survival was inactive: 78%. In the case of `COc1cccc(-n2cc(C(=O)NCc3ccc(C)cc3)c3ccccc3c2=O)c1`, the survival is inactive: 112%. To `O=C(NC1CC(=O)N(c2ccc(Cl)cc2)C1)c1ccc(S(=O)(=O)N2CCOCC2)cc1` (stereo not given) belongs inactive: 91%. To `O=C(O)CCC1NC(=O)NC1=O` (stereo not given) belongs inactive: 117%; to `CCOC(=O)c1ccc(NC(=O)c2nc(SCc3ccccc3F)ncc2Cl)cc1`, inactive: 87%. The value for `COc1cc(C2C(C(=O)Nc3ccccc3)=C(C)Nc3nnnn32)cc(OC)c1OC` (stereo not given) was inactive: 101%. `COc1ccc(-c2noc(CN(C(=O)c3cc(OC)c(OC)cc3OC)C(C)C)n2)cc1`: the survival is inactive: 86%. On to `CCCCOC(=O)c1ccc(Nc2nnc(-n3nc(C)cc3C)c3ccccc23)cc1`, for which the survival was inactive: 120%.

For `Cc1nnc2c3ccccc3nc(Nc3cccc(O)c3)n12`, the survival was inactive: 78%. The value for `CCOc1ccc2nc(N3CCCC(C(=O)NCc4ccccc4OC)C3)sc2c1` (stereo not given) was inactive: 85%; that for `Cc1ccc(Cl)cc1NC(=O)C1CCN(c2nc3ccccc3n3cccc23)CC1` was inactive: 83%; that for `CCCn1c2ccccc2c2cnn(CC(=O)NCCc3ccc(C)cc3)c(=O)c21` was inactive: 121%. To `Cc1ccc(/C=C/c2onc(C)c2S(=O)(=O)N2CCC(C(=O)Nc3cc(F)ccc3F)CC2)cc1` belongs inactive: 72%; to `O=C(CC(c1ccc(Cl)cc1)S(=O)(=O)c1ccccc1)c1ccco1` (stereo not given), inactive: 107%; to `CCOc1ccc(S(=O)(=O)Nc2cc(Cl)ccc2OC)c2cccnc12`, inactive: 90%. To `Cc1cc(C)c2oc(C(=O)Nc3ccc(S(=O)(=O)Nc4nccc(C)n4)cc3)cc(=O)c2c1` belongs inactive: 70%.

Take `CC(C)Nc1nc(NC(N)=O)nc(NC(C)C)n1`: the survival was inactive: 103%. To `COCCn1c(=O)[nH]c2cc(C(=O)Nc3cccc(C(C)=O)c3)ccc2c1=O` belongs inactive: 73%. `COc1ccc(Nc2oc(/C=C/c3ccc(OC)c(OC)c3)nc2C#N)cc1`: the survival was inactive: 95%. To `CCc1nn(CC(=O)NCCCOC)c(=O)c2cc3ccccc3n12` belongs inactive: 91%; to `Cc1ccc(CN2CCCn3nc(C(=O)NCC(C)c4ccccc4)cc3C2=O)cc1` (stereo not given), inactive: 87%; to `CCCn1c(CCC(=O)Nc2ccccc2OC)nc2cccnc21`, inactive: 89%. The value for `CCOc1ccc(S(=O)(=O)NCCc2sc3nc(-c4ccc(C)cc4)nn3c2C)cc1` was inactive: 129%. For `Cc1cc(C)cc(-n2ccn(Cc3ccc(F)cc3)c(=O)c2=O)c1`, the survival was inactive: 85%.

`Cc1cccc(C)c1Nc1c(-c2ccc(O)cc2)nc2sccn12`: the survival was inactive: 44%.

In the case of `O=c1c2sc3ccccc3c2n(Cc2cccc(C(F)(F)F)c2)c(=O)n1Cc1ccc(F)cc1`, the survival is inactive: 128%.

Turning to `O=c1oc2ccccc2cc1-c1cn2cc(Cc3ccc(Br)cc3)sc2n1`, the survival was inactive: 84%. The value for `COc1ccc2oc(-c3cccc(NC(=O)c4sc5c([N+](=O)[O-])cccc5c4Cl)c3)nc2c1` was inactive: 92%; that for `COc1ccc(NC(=O)CC2C(=O)N(c3cccc(OC)c3)C(=O)N2Cc2ccc3c(c2)OCO3)cc1` (stereo not given) was inactive: 79%.

Regarding `Cc1ccc(-c2cn(-c3ccc(Cl)cc3)c(S(=O)(=O)CC(=O)Nc3ccccc3)n2)cc1`, the survival was inactive: 78%. For `Cc1cc(C)cc(NC(=O)C2CCN(S(=O)(=O)c3cccc(-c4noc(C)n4)c3)CC2)c1`, the survival was active: -6%. Consider `COc1ccc(S(=O)(=O)c2nnn(-c3ccc(C)c(Cl)c3)c2C)cc1`, for which the survival is inactive: 115%.

In the case of `Cc1cc(NC(=O)CSc2ccccc2)no1`, the survival is inactive: 103%. The value for `Cc1ccc(CNC(=O)CCCN2C(=O)COc3ccc(C)cc32)cc1` was inactive: 77%; that for `CC(C)NC(=O)C1CCN(C(=O)c2ccc(Cl)cc2)CC1` was inactive: 87%; that for `CC1=Nc2cc(C(=O)NC(C)C)ccc2Sc2ccc(C)cc21` was inactive: 77%. The value for `Cc1cc(-c2ccccc2)c(C#N)c(N)n1` was inactive: 103%. The value for `Fc1ccc(Br)cc1C1C=C(c2ccc(Br)cc2)Nc2nnnn21` (stereo not given) was inactive: 81%; that for `Cc1cccc(NC(=O)C(=O)NCCc2csc(-c3ccc(C(F)(F)F)cc3)n2)c1C` was inactive: 99%. For the molecule `O=C(CC1N=C2c3ccccc3N=C(SCC(=O)Nc3ccccc3F)N2C1=O)NCc1cccs1` (stereo not given), the survival was inactive: 73%. To `CN(C)/C(=N\O)c1nonc1N` belongs inactive: 106%; to `CC1CCc2c(sc(NC(=O)c3cc(-c4ccc(F)cc4)on3)c2C(N)=O)C1` (stereo not given), inactive: 74%. On to `Cc1ccc2sc(N(Cc3cccnc3)C(=O)C3COc4ccccc4O3)nc2c1C` (stereo not given), for which the survival was inactive: 60%. To `Cc1ccc(NC(=O)c2c(NC(=O)c3ccccc3)sc3c2CCC3)cc1` belongs inactive: 79%; to `Cc1c(C#N)c2ccccc2n1CC(=O)NC1CCCCCC1`, inactive: 107%.

For the origin of these results see PubChem BioAssay AID463173 (ICCB-Longwood Screening Facility, Harvard Medical School, 2010).
